# Experimental data published in PubChem BioAssay (Tox21).
# The inconclusive results got no clear call from the source; some entries with a clear call stand among them for comparison. For part of these data: Potencies of inconclusive entries are doubtful fits and often do not repeat. The source made the active and inactive calls. Unless noted, calls follow the shape of the full dose curve.
# Test system: not listed separately
# Assay: qHTS assay to identify small molecule agonists of the farnesoid-X-receptor (FXR) signaling pathway - cell viability counter screen (AID 743218; active = well fitted cell-killing curve with a large enough effect in the repeat runs; inconclusive = weak or mixed curves, or effect the other way; inactive = no such curve, though single readings can be large or run the other way; also: nearly all actives have a fitted effect of over 45% in size; also: potency is read from the fitted curve at half-maximal effect)
# Details: FXR-bla HEK293T viability, CellTiter-Glo luminescence, 16 h; viability change, negative = cytotoxic: at 62.6 µM (top of the series) unless noted
# How it was run: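 In GeneBLAzer FXR-UAS-bla HEK 293T cells, compounds act for 16 h at 37 C. Cell viability is then scored in the reporter wells by CellTiter-Glo, 30 min at RT, luminescence.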
# % is scaled to controls: 0 for no effect and ±100 for the full control effect; tags tell the direction and shape of the fitted curve or compound fluorescence and quenching.
SMILES,Potency,"viability change, negative = cytotoxic"
CCCCCCCC,"inconclusive: 0.0055 µM [rising, full curve, poor fit]",
O=C(O)c1ccccc1C(=O)Nc1ccc(S(=O)(=O)Nc2nccs2)cc1,,inconclusive: 18.3%
Cc1ccc(Cl)cc1N,,inactive: 17% [at 81.1 µM]
CC(C)(C)NCC(O)COc1ccccc1OCC1CCCO1 (configuration not stated),,inactive: 0.721%
O=C(NC(Cc1cc(=O)[nH]c2ccccc12)C(=O)O)c1ccc(Cl)cc1 (configuration not stated),,inactive: 13.5%
CCC(Cl)CC(Cl)C(Cl)C(Cl)C(Cl)C(C)Cl (configuration not stated),"inconclusive: 0.378 µM [rising, partial curve, poor fit]",
CCCC[P+](C)(CCCC)CCCC,,inactive: 22.6% [at 81.1 µM]
Nc1nc(F)nc2c1ncn2[C@@H]1O[C@H](CO)[C@@H](O)[C@@H]1O,,inactive: 6.58%

# Test system: not listed separately
# Assay: qHTS assay to identify small molecule antagonists of the farnesoid-X-receptor (FXR) signaling pathway - cell viability counter screen (AID 743221; active = well fitted cell-killing curve with a large enough effect in the repeat runs, not every such curve was filed as active; inconclusive = weak or mixed curves, or effect the other way; inactive = no such curve, though single readings can be large or run the other way; also: nearly all actives have a fitted effect of over 50% in size; also: potency is read from the fitted curve at half-maximal effect)
# Details: FXR-bla HEK293T viability, CellTiter-Glo luminescence, 16 h; activity change, negative = cytotoxicity: at 62.6 µM (top of the series)
# How it was run: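 Multiplexed counter screen: viability of FXR-bla HEK 293T cells under agonist stimulation by chenodeoxycholic acid (50 uM, final) and test compound for 16 h at 37 C, measured by CellTiter-Glo luminescence in the reporter wells.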
SMILES,Potency,"activity change, negative = cytotoxicity"
CC(=O)c1ccc(C(C)=O)cc1,"inconclusive: 15.8 µM [rising, partial curve, poor fit]",
CCCN(CCC)CCc1cccc2c1CC(=O)N2,,inactive: 9.93%
CC(=O)C(=O)CC(C)C,,inactive: -3.46%

# Target: Vitamin D3 receptor (Homo sapiens) (UniProt P11473)
# Assay: qHTS assay to identify small molecule agonists of the vitamin D receptor (VDR) signaling pathway (AID 743222); also: potency is read from the fitted curve at half-maximal effect
# Details: HEK293T VDR-UAS-bla, beta-lactamase FRET ratio, 16 h; activation: at 63.5 µM (top of the series) unless noted
# How it was run: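 Agonist activity measured in VDR-bla reporter cells. Exposure 16 h, 37C, 5% CO2; detection by B/G FRET substrate, 2 h RT.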
# UniProt P11473, sequence (P11473 whole entry, looked up): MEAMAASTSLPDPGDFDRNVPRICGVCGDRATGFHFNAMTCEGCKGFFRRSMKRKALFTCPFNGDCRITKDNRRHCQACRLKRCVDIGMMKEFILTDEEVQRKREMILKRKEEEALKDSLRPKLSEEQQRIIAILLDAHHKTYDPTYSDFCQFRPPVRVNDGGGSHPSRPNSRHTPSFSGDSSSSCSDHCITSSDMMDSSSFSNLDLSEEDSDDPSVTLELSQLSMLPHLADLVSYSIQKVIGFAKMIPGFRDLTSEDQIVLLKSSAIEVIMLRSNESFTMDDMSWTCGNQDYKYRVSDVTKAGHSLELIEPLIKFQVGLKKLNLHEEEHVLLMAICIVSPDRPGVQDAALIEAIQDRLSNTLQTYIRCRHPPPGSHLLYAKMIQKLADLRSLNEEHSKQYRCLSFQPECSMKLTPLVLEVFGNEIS
SMILES,activation,Potency
C/C=C/C(=O)N(CC)c1ccccc1C,inconclusive: 5.44%,
COC(OC)OC,inactive: 2.22%,
CCCC[P+](C)(CCCC)CCCC,inactive: -7.58% [at 81.1 µM],
C1COC(NC(C2CC2)C2CC2)=N1,,"inconclusive: 13.3 µM [activator, partial curve, poor fit]"

# Target: Vitamin D3 receptor (Homo sapiens) (UniProt P11473)
# Assay: qHTS assay to identify small molecule antagonists of the vitamin D receptor (VDR) signaling pathway (AID 743223; active = well fitted inhibition curve with a large enough effect in the signal ratio in the repeat runs, not every such curve was filed as active; inconclusive = weak or mixed curves, or effect the other way; inactive = no such curve, though single readings can be large or run the other way; the % refers to the signal ratio)
# Details: VDR-UAS-bla HEK293T, beta-lactamase FRET ratio, 16 h; activity change, negative = inhibition: at 61 µM (top of the series) unless noted
# How it was run: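 Cells carrying a VDR-driven beta-lactamase reporter (VDR-bla) were co-treated with compound and 3 nM final 1alpha,25-dihydroxyvitamin D3 for 16 h at 37C; reporter activity was measured as FRET substrate fluorescence after 2 h at room temperature.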
SMILES,"activity change, negative = inhibition",Potency
COCC(C)N (configuration not stated),inconclusive: -1.13%,
Cc1ccc2cccnc2c1,inconclusive: 23.5%,
NCCCN1CCN(CCCN)CC1,inactive: -4.63%,
CC(C)(CO)[C@@H](O)C(=O)NCCCO,inactive: 4.6%,
OCCN1CCN(CCO)CC1,inactive: 4.4% [at 78.8 µM],
O=[N+]([O-])c1cccc(C(F)(F)F)c1,inactive: 2.07% [at 78.8 µM],
CC(=O)c1ccc(C(C)=O)cc1,inconclusive: -0.75% [at 78.8 µM],
CNCc1ccc(NC(=O)c2c[nH]c3c2C(=O)CCC3)cc1,inactive: -0.504%,
C/C=C/C(=O)N(CC)c1ccccc1C,inconclusive: 25.6%,
O=C(NC(Cc1cc(=O)[nH]c2ccccc12)C(=O)O)c1ccc(Cl)cc1 (configuration not stated),inconclusive: 3.24%,
C=CCOCC(O)CCl (configuration not stated),inactive: -7.58%,
Cc1cc(Cl)c(C)cc1Cl,inconclusive: -23.6%,
c1ccc2sc(SSc3nc4ccccc4s3)nc2c1,inactive: -12.6% [at 28.5 µM],
CCSC(=O)N(CC)CC,inactive: -1.91%,
O=C1O[C@H](CO)[C@@H](O)[C@H](O)[C@H]1O,,inactive
CCCC[P+](C)(CCCC)CCCC,inactive: -13% [at 78.8 µM],
CCCC/C=C/C=C\C=O,inactive: 3.19%,
CCCc1ccc(N)cc1,inactive: 12.7%,
O=C(O)c1ccccc1,,inactive
Cc1cc(=O)[nH]c(C(C)C)n1,,inactive
CCSC(=O)N(CC(C)C)CC(C)C,inactive: 4.82%,
CCCCC(CC)CNCC(CC)CCCC (configuration not stated),inactive: -1.43%,
O=CNNC=O,inactive: -5.56% [at 78.8 µM],

# Test system: not listed separately
# Assay: qHTS assay to identify small molecule antagonists of the vitamin D receptor (VDR) signaling pathway - cell viability counter screen (AID 743225; active = well fitted cell-killing curve with a large enough effect in the repeat runs; inconclusive = weak or mixed curves, or effect the other way; inactive = no such curve, though single readings can be large or run the other way; also: nearly all actives have a fitted effect of over 50% in size; also: potency is read from the fitted curve at half-maximal effect)
# Details: VDR-bla HEK293T viability, CellTiter-Glo luminescence, 16 h; viability change, negative = cytotoxic: at 61 µM (top of the series) unless noted
# How it was run: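 HEK293T VDR-bla; cpd + 1a,25-(OH)2D3 3 nM final, 16 h 37C/5% CO2; B/G FRET substrate 2 h RT; then CellTiter-Glo 30 min RT, luminescence.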
SMILES,Potency,"viability change, negative = cytotoxic"
CC(=O)NNC(C)=O,"inconclusive: 22.5 µM [rising, single point]",
Cc1ccc2cccnc2c1,"inconclusive: 17.2 µM [rising, partial curve, poor fit]",
OCCN1CCN(CCO)CC1,,inactive: 3.85% [at 78.8 µM]
O=C1O[C@H](CO)[C@@H](O)[C@H](O)[C@H]1O,"inconclusive: 19.5 µM [cytotoxic, single point]",
CC(C)c1ccc2cc(C(C)C)ccc2c1,,inactive: 7.83%
O=CO,,inactive: 3.57% [at 6.95 µM]
O=C(O)c1ccccc1,inactive,
OC1CCCc2ccccc21 (configuration not stated),,inactive: -11.9% [at 78.8 µM]
CCCCOC(=O)CO,,inactive: 7.97%

# Test system: not listed separately
# Assay: qHTS assay to identify small molecule agonists of the endoplasmic reticulum stress response signaling pathway - cell viability counter screen (AID 1159517); also: nearly all actives have a fitted effect of over 50% in size; also: potency is read from the fitted curve at half-maximal effect;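 as to activity change, negative = cytotoxicity: HeLa cells carrying an ER stress response element beta-lactamase reporter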
# Details: ESRE-bla HeLa viability, CellTiter-Glo luminescence, 5 h; series mostly up to 61 µM; activity change, negative = cytotoxicity: at the top concentration
# How it was run: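 HeLa cells carrying an ESRE-driven beta-lactamase reporter receive compound for 5 hr at 37 C. Cell viability is then gauged with CellTiter-Glo by luminescence, 30 min at room temperature.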
SMILES,Potency,"activity change, negative = cytotoxicity"
CCCCCCCC,"inconclusive: 0.971 µM [cytotoxic, full curve, poor fit]",
O=C(O)c1ccccc1C(=O)Nc1ccc(S(=O)(=O)Nc2nccs2)cc1,,inactive: 5.36%
COCC(C)N (configuration not stated),inactive,
CC(=O)NNC(C)=O,"inconclusive: 28.3 µM [cytotoxic, partial curve, poor fit]",
Cc1ccc2cccnc2c1,,inactive: 8.4%
NCCCN1CCN(CCCN)CC1,,inactive: 5.43%
CC(C)(CO)[C@@H](O)C(=O)NCCCO,,inactive: 3.16%
Cc1ccc(Cl)cc1N,"inconclusive: 0.499 µM [cytotoxic, single point]",
OCCN1CCN(CCO)CC1,,inactive: 15.3% [at 78.8 µM]
O=[N+]([O-])c1cccc(C(F)(F)F)c1,"inconclusive: 49.3 µM [cytotoxic, single point]",
CC(=O)c1ccc(C(C)=O)cc1,"inconclusive: 2 µM [cytotoxic, full curve]",
CNCc1ccc(NC(=O)c2c[nH]c3c2C(=O)CCC3)cc1,"inconclusive: 0.0389 µM [cytotoxic, full curve, poor fit]",
C/C=C/C(=O)N(CC)c1ccccc1C,"inconclusive: 0.0952 µM [cytotoxic, single point]",
COC(OC)OC,"inconclusive: 48.2 µM [cytotoxic, single point]",
CC(C)(C)NCC(O)COc1ccccc1OCC1CCCO1 (configuration not stated),,inactive: -0.714%
O=C(NC(Cc1cc(=O)[nH]c2ccccc12)C(=O)O)c1ccc(Cl)cc1 (configuration not stated),inconclusive: 0.001 µM,
C=CCOCC(O)CCl (configuration not stated),,inactive: 8.5%
Cc1cc(Cl)c(C)cc1Cl,active: 54.9 µM,
c1ccc2sc(SSc3nc4ccccc4s3)nc2c1,"inconclusive: 5.22 µM [rising, full curve, poor fit]",
CCSC(=O)N(CC)CC,"inconclusive: 0.0055 µM [cytotoxic, full curve, poor fit]",

SMILES,Potency,"activity change, negative = cytotoxicity"
O=C1O[C@H](CO)[C@@H](O)[C@H](O)[C@H]1O,"inconclusive: 17.4 µM [rising, partial curve, poor fit]",
CC(C)c1ccc2cc(C(C)C)ccc2c1,,inactive: -8.91%
CCCN(CCC)CCc1cccc2c1CC(=O)N2,,inactive: -2.96%
CCC(Cl)CC(Cl)C(Cl)C(Cl)C(Cl)C(C)Cl (configuration not stated),"inconclusive: 0.0268 µM [cytotoxic, full curve, poor fit]",
O=CO,,inactive: -1.24% [at 6.95 µM]
CCCC[P+](C)(CCCC)CCCC,"inconclusive: 0.351 µM [cytotoxic, full curve, poor fit]",
CC(=O)C(=O)CC(C)C,"inconclusive: 0.0122 µM [cytotoxic, full curve, poor fit]",
CCCC/C=C/C=C\C=O,,inactive: 8.99%
CCCc1ccc(N)cc1,,inactive: 7.6%
O=C(O)c1ccccc1,inconclusive: 0.0003 µM [cytotoxic],
CC1CCCO1 (configuration not stated),"inconclusive: 47.9 µM [cytotoxic, partial curve, poor fit]",
Nc1nc(F)nc2c1ncn2[C@@H]1O[C@H](CO)[C@@H](O)[C@@H]1O,,inactive: 2.8%
Cc1cc(=O)[nH]c(C(C)C)n1,"inconclusive: 21.9 µM [cytotoxic, partial curve, poor fit]",
CCSC(=O)N(CC(C)C)CC(C)C,,inactive: -1.19%
C=COCC1CCC(CO)CC1 (configuration not stated),,inactive: -15.8%
C1COC(NC(C2CC2)C2CC2)=N1,,inactive: -10.3%
OC1CCCc2ccccc21 (configuration not stated),"inconclusive: 15.7 µM [rising, partial curve, poor fit]",
CCCCOC(=O)CO,"inconclusive: 1.95 µM [cytotoxic, partial curve, poor fit]",
CCCCC(CC)CNCC(CC)CCCC (configuration not stated),"inconclusive: 19.3 µM [rising, partial curve, poor fit]",
O=CNNC=O,"inconclusive: 62.6 µM [cytotoxic, single point]",
